Results from PubChem BioAssay AID686978 (National Center for Advancing Translational Sciences (NCATS), 2013).
Where “and” joins values, the source holds several entries; their conditions need not be identical. Equal values may be shown once. The campaign covered roughly 420,000 compounds. About 64,000 (15%) were called active. The shares of active, inactive and inconclusive entries below differ from those in the screen. The call rests on the fitted dose curve; in most records, active means well fitted inhibition curve with a large enough effect; inconclusive means small, poorly fitted or top-dose-only effect; inactive means flat fitted curve, though single readings scatter. A potency beside an inconclusive call is a rough fit, not a confirmed value.

Assay: qHTS for Inhibitors of human tyrosyl-DNA phosphodiesterase 1 (TDP1): qHTS in cells in absence of CPT; further: nearly all actives have a fitted effect of over 55% in size
Conditions: DT40 Tdp1-/- hTDP1 cells, no CPT, ATP luminescence, 48 h; series mostly up to 46.2 µM
In short: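 Luminescent ATP content (CellTiter-Glo) served as the growth readout. Knockout chicken DT40 cells expressing human TDP1 were exposed to compounds without camptothecin for a minimum 48 hr at 37 °C.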
Potency means the concentration at half of the fitted maximal effect; tags describe the fitted curve by direction and shape.

**Q.** With `CCN1C(=O)c2ccccc2S(=O)c2ccc(C(=O)N3CCOCC3)cc21` (stereo not drawn) as the compound, how does the Potency read?
**A.** inactive

**Q.** For `CCO[C@H]1OC(C(=O)N2CCN(Cc3ccc4c(c3)OCO4)CC2)=C[C@@H](C2CC2)[C@@H]1CCCO`, which Potency is on record?
**A.** inconclusive: 29.1 µM [inhibitor, single point]

**Q.** With `CN1C2C=C3C(C#N)=C(N)C(C#N)(C#N)C(c4ccc(Br)cc4)C3C1CC2` (stereo not drawn) as the compound, how does the Potency read?
**A.** active: 20.6 µM

**Q.** For `CCN(CC)S(=O)(=O)c1cc(NC(=O)CSc2nc3c(cc2C#N)C(=O)CC(C)(C)C3)ccc1C`, which Potency is on record?
**A.** active: 18.4 µM

**Q.** With `C=CCn1c(NC(=O)c2ccccc2Cl)c(C#N)c2nc3ccccc3nc21` as the compound, how does the Potency read?
**A.** active: 20.6 µM

**Q.** Which Potency does the source give for `O=C1CCC(C(=O)N2CCN(c3ccccc3)CC2)CN1Cc1ccc(Cl)cc1` (stereo not drawn) here?
**A.** inconclusive: 29.1 µM [inhibitor, single point]

**Q.** For `CCc1ccc(NC(=O)N(C2CCCCC2)C(C)c2cccnc2)cc1` (stereo not drawn), which Potency is on record?
**A.** inconclusive: 23.1 µM [inhibitor, partial curve]

**Q.** For `CCOc1ccc(OCC)c(NC(=O)c2cnc3c(-c4ccccc4)c(C)nn3c2C)c1`, which Potency is on record?
**A.** inconclusive: 25.9 µM [inhibitor, single point]

**Q.** With `Cc1ccc(S(=O)(=O)NCC2CCC(C(=O)NCc3ccc4c(c3)OCO4)CC2)cc1` (stereo not drawn) as the compound, how does the Potency read?
**A.** inconclusive: 11.6 µM [inhibitor, partial curve]

**Q.** Which Potency does the source give for `Cc1cccc(-c2nnc(SCc3nc4ccccc4[nH]3)n2Cc2ccco2)c1` here?
**A.** inconclusive: 7.31 µM [inhibitor, partial curve, poor fit]

**Q.** Which Potency does the source give for `CCOC(=O)CN(C)C(=O)CCc1nnc(-c2ccc(-c3ccccc3)cc2)o1` here?
**A.** inconclusive: 4.61 µM [inhibitor, single point]

**Q.** With `CCCn1c(C)nc2cc(Cl)c(N3CCN(c4nc(-c5ccc(C)cc5)cs4)CC3)cc21` as the compound, how does the Potency read?
**A.** inconclusive: 23.1 µM [inhibitor, partial curve]

**Q.** With `CCOC(=O)c1c(NC(=O)CSc2nc3ccccc3[nH]2)sc2c1CC(C)(C)NC2(C)C` as the compound, how does the Potency read?
**A.** inconclusive: 20.6 µM [inhibitor, single point]

**Q.** Which Potency does the source give for `CC1CCCC1/C(=N/O)c1ccccc1` (stereo not drawn) here?
**A.** inactive

**Q.** With `CCOc1cccc(N(C(=O)C2COc3ccccc3O2)C(C(=O)NC2CCCCC2)c2ccc(O)cc2)c1` (stereo not drawn) as the compound, how does the Potency read?
**A.** inconclusive: 29.1 µM [inhibitor, single point]

**Q.** For `C=CCN1C(=O)CSc2ccc(C(=O)NCc3ccc(F)cc3)cc21`, which Potency is on record?
**A.** inactive

**Q.** Which Potency does the source give for `CC(C)n1c(=S)[nH]c2ccccc2c1=O` here?
**A.** inconclusive: 23.1 µM [inhibitor, single point]

**Q.** Which Potency does the source give for `O=[N+]([O-])c1ccc(C(O)CN=Cc2ccc(O)cc2O)cc1` (stereo not drawn) here?
**A.** inconclusive: 29.1 µM [inhibitor, single point]

**Q.** For `C[C@@H](NC(=O)c1nc[nH]c1C(=O)NC1CCN(C(=O)OC(C)(C)C)CC1)c1ccccc1`, which Potency is on record?
**A.** inconclusive: 20.6 µM [inhibitor, single point]

**Q.** Which Potency does the source give for `CC(NC(=O)c1ccc(Cl)cc1)C(=O)N1CCCCC1` (stereo not drawn) here?
**A.** inactive

**Q.** For `C[C@@]12C(=O)Nc3cc(F)ccc3C(=O)N1[C@H]1c3ccccc3OC[C@@H]1[C@@H]2c1ccccc1`, which Potency is on record?
**A.** inconclusive: 29.1 µM [inhibitor, single point]

**Q.** For `CCOc1cc(/C=C/C(=O)O)ccc1OCCO`, which Potency is on record?
**A.** active: 18.4 µM

**Q.** With `O=c1c2oc3ccccc3c2n(Cc2cccc(Cl)c2)c(=O)n1Cc1ccc2c(c1)OCO2` as the compound, how does the Potency read?
**A.** inconclusive: 11.6 µM [inhibitor, partial curve]

**Q.** Which Potency does the source give for `Cc1ccc(CN2CC(N3CCN(CC4CC4)CC3)CS2(=O)=O)cc1` (stereo not drawn) here?
**A.** inactive

**Q.** For `O=C(CSc1nc(-c2ccc(F)cc2)cs1)NCC1CCCO1` (stereo not drawn), which Potency is on record?
**A.** active: 20.6 µM

**Q.** For `CC(C)CNC(=S)NNC(=O)c1nn(C)cc1Cl`, which Potency is on record?
**A.** inactive

**Q.** For `COc1ccc(OC)c(NC(=O)c2c(NC(=O)CCC(=O)O)sc3c2CCCCC3)c1`, which Potency is on record?
**A.** inconclusive: 25.9 µM [inhibitor, single point]

**Q.** With `COc1ccc(NC(=O)C2(C)Cc3c(-c4ccc(NC(C)=O)cc4)ccnc3O2)cc1` (stereo not drawn) as the compound, how does the Potency read?
**A.** inconclusive: 23.1 µM [inhibitor, single point]

**Q.** With `COC(=O)c1cc2oc(C)cc2n1Cc1cccc(Cl)c1` as the compound, how does the Potency read?
**A.** inconclusive: 29.1 µM [inhibitor, single point]

**Q.** Which Potency does the source give for `c1ccc(-c2ccc(SCc3cccnc3)nn2)nc1` here?
**A.** inconclusive: 29.1 µM [inhibitor, single point]

**Q.** Which Potency does the source give for `CCCCN(CC)C(=O)CSc1nc2c(sc(=S)n2-c2ccc(OCC)cc2)c(=O)[nH]1` here?
**A.** inactive

**Q.** For `O=C(NCc1cccc(Cl)c1)c1ccc(CS(=O)Cc2ccccc2Cl)o1` (stereo not drawn), which Potency is on record?
**A.** inconclusive: 29.1 µM [inhibitor, single point]

**Q.** For `COc1ccc(-c2sc3cc4c(cc3c2C#Cc2cncn2C)OCO4)cc1`, which Potency is on record?
**A.** active: 14.6 µM

**Q.** With `CCc1ccc(NC(=O)C2CCN(S(=O)(=O)c3cccs3)CC2)cc1` as the compound, how does the Potency read?
**A.** inconclusive: 18.4 µM [inhibitor, single point]

**Q.** Which Potency does the source give for `O=C1C2C3C=CC(C3)C2C(=O)N1c1ccc(Cc2ccncc2)cc1` (stereo not drawn) here?
**A.** active: 13 µM

**Q.** Which Potency does the source give for `Oc1c(C(c2cccs2)N2CCN(c3cccc(Cl)c3)CC2)sc2ncnn12` (stereo not drawn) here?
**A.** active: 23.1 µM

**Q.** For `O=C(CCCN1C(=O)c2ccccc2C1=O)OC1CSCC1NC(=O)c1ccccc1` (stereo not drawn), which Potency is on record?
**A.** inconclusive: 29.1 µM [inhibitor, single point]

**Q.** With `COc1ccc(C(C(=O)NCC2CCCO2)N(Cc2cccs2)C(=O)c2snc(C(N)=O)c2N)cc1OC` (stereo not drawn) as the compound, how does the Potency read?
**A.** inactive

**Q.** Which Potency does the source give for `Cc1ccc(-c2nc3ccccc3c(=O)n2NC(=O)c2cccs2)cc1` here?
**A.** inconclusive: 23.1 µM [inhibitor, single point]

**Q.** Which Potency does the source give for `CC(C)(C=O)Cc1cc(C(C)(C)C)c(O)c(C(C)(C)C)c1` here?
**A.** inconclusive: 32.6 µM [inhibitor, single point]

**Q.** For `Cc1cc(NC(=O)CCC(=O)N(CC(=O)NC2CCCC2)c2ccc(C(C)C)cc2)no1`, which Potency is on record?
**A.** inconclusive: 20.6 µM [inhibitor, single point]

**Q.** For `CC(C)(C)S(=O)(=O)/C(C#N)=N/Nc1ccc(C#N)cc1`, which Potency is on record?
**A.** inconclusive: 29.1 µM [inhibitor, single point]

**Q.** With `COc1ccc(CNC(=O)C[C@H]2C(=O)N(c3ccccc3)C[C@@H]2Cc2ccccc2)cc1` as the compound, how does the Potency read?
**A.** inconclusive: 29.1 µM [inhibitor, single point]

**Q.** With `CCC(C)(C)n1nnnc1C(c1ccc(O)c(OC)c1)N1CCc2ccccc2C1` (stereo not drawn) as the compound, how does the Potency read?
**A.** active: 13 µM

**Q.** Which Potency does the source give for `O=C(NC1(C(F)(F)F)NC(=O)N(CCc2ccccc2)C1=O)c1ccccc1F` (stereo not drawn) here?
**A.** inactive

**Q.** With `O=C(Cc1cccs1)NNC(=S)NC(=O)c1ccco1` as the compound, how does the Potency read?
**A.** active: 29.1 µM

**Q.** For `CCN(CC)c1ccc(-c2nc3cnccn3c2NC2CCCC2)cc1`, which Potency is on record?
**A.** inconclusive: 29.1 µM [inhibitor, single point]

**Q.** With `Cc1occc1C(=O)N/N=C/c1ccc(Cl)c([N+](=O)[O-])c1` as the compound, how does the Potency read?
**A.** inconclusive: 20.6 µM [inhibitor, single point]

**Q.** With `Cn1cc(Br)c(C(=O)NC2CCCCCC2)n1` as the compound, how does the Potency read?
**A.** inactive

**Q.** Which Potency does the source give for `COc1cc2ccccc2cc1C(=O)OCC(=O)N(C)c1c(N)n(Cc2ccccc2)c(=O)[nH]c1=O` here?
**A.** inconclusive: 23.1 µM [inhibitor, single point]

**Q.** With `CC(C)(CC(=O)c1ccccc1)CC(=O)c1ccccc1` as the compound, how does the Potency read?
**A.** inconclusive: 23.1 µM [inhibitor, single point]

**Q.** For `CCC(=O)NCc1c(C)c(C)n(Cc2ccccc2)c1-n1cccc1`, which Potency is on record?
**A.** inconclusive: 29.1 µM [inhibitor, single point]

**Q.** With `NC1=NC(=Nc2cccc(Cl)c2)c2ccccc21` as the compound, how does the Potency read?
**A.** inconclusive: 29.1 µM [inhibitor, single point]

**Q.** With `Cn1cc(C2NC(=O)c3ccccc3N2)c2ccccc21` (stereo not drawn) as the compound, how does the Potency read?
**A.** active: 1.64 µM

**Q.** For `O=C(Nc1cccc(-c2nnc(-c3ccccc3)o2)c1)C1CCCO1` (stereo not drawn), which Potency is on record?
**A.** inconclusive: 20.6 µM [inhibitor, single point]

**Q.** Which Potency does the source give for `CCOc1ccc2nc(N(Cc3cccnc3)C(=O)c3ccc4c(c3)OCCO4)sc2c1` here?
**A.** active: 20.6 µM

**Q.** For `CCOC(=O)N1CCN(C(=O)CNC(=O)c2nn(-c3ccc(OC)cc3OC)c(=O)c3ccccc23)CC1`, which Potency is on record?
**A.** inactive

**Q.** Which Potency does the source give for `CC(C)(Oc1ccc(CCNC(=O)c2ccc(-c3ccc(Cl)cc3)o2)cc1)C(=O)O` here?
**A.** inconclusive: 23.1 µM [inhibitor, single point]

**Q.** Which Potency does the source give for `Cc1ccc(NC(=O)CCc2c(C)nn(-c3ccc(N4CCCCC4)nn3)c2C)cc1F` here?
**A.** inactive and inconclusive: 29.1 µM [inhibitor, single point]

**Q.** Which Potency does the source give for `O=C(c1cc(COc2c(F)cccc2F)on1)N1CC[C@@H]2CCCC[C@H]2C1` here?
**A.** inconclusive: 16.4 µM [inhibitor, single point]

**Q.** Which Potency does the source give for `CC(=O)N/C(=C\c1ccccc1)C(=O)OCC(=O)N(C)C1CCS(=O)(=O)C1` (stereo not drawn) here?
**A.** inactive

**Q.** Which Potency does the source give for `CS(=O)(=O)Nc1ccccc1C(=O)Nc1ccc2c(c1)OCCO2` here?
**A.** inconclusive: 14.6 µM [inhibitor, partial curve]

**Q.** For `O=C(Cn1nnc(-c2ccc(Cl)cc2)n1)NC1CCS(=O)(=O)C1` (stereo not drawn), which Potency is on record?
**A.** inactive

**Q.** Which Potency does the source give for `O=C1CC(c2ccccc2)=NN1c1ccc([N+](=O)[O-])cc1` here?
**A.** active: 16.4 µM

**Q.** Which Potency does the source give for `O=C(c1cnccn1)N1CCC2(CCCN(c3ccncc3)C2)CC1` here?
**A.** inactive

**Q.** Which Potency does the source give for `COc1ccc(C(CNC(=O)c2cncc(Br)c2)N(C)C)cc1` (stereo not drawn) here?
**A.** inconclusive: 29.1 µM [inhibitor, single point]

**Q.** With `COC(=O)[C@@]1(C(C)C)N=C(c2cc(OC)c(OC)c(OC)c2)[C@]2(O1)C(=O)Nc1ccc(F)cc12` as the compound, how does the Potency read?
**A.** inconclusive: 16.4 µM [inhibitor, partial curve, poor fit]

**Q.** With `COc1ccccc1N1CCN(S(=O)(=O)c2ccc3c(c2)CC(C)N3C(C)=O)CC1` (stereo not drawn) as the compound, how does the Potency read?
**A.** inconclusive: 23.1 µM [inhibitor, single point]
